Data taken from the supplement of paper PMC10126150.
Sequences with one replicate were seen in a single cluster, so their values are uncertain.
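Also: ATP exposure 15 min at 22 °C before imaging.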

Each sequence was assayed on ATP (assay: switch fluorescence ratio, 500 uM ATP over buffer (Cy3 cluster intensity, sum of 5 cycles each) (fold (ratio)); higher = stronger signal-on switching upon ATP binding; sequences stand for … in TCGTCGGCAGCGTCAGATGTGTATAAGAGACAGTTTTTTTTTTTTTTTTTTTTTTTTT…TC). Conditions: aptamer strand: ATP DNA aptamer (quencher-CACCTGGGGGAGTATTGCGGAGGAAGG + anchor), 100 nM annealed; ATP concentration: 500 uM; one replicate.
In short: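 Between each of five buffer/ATP cycles, the flow-cell was stripped with NaOH and re-annealed. Each cycle imaged Cy3-labelled switching-strand clusters, annealed to 100 nM quencher-labelled ATP aptamer on a modified Illumina MiSeq flow-cell, first in selection buffer and then after 15 min with 500 uM ATP at 22 °C. The fluorescence ratio is summed target-cycle over summed buffer-cycle Cy3 intensity per cluster, averaged per switch-domain sequence, with clusters outside 100-1000 RFU excluded.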
ACATCAAATT gave a switch fluorescence ratio of 1.07. GCAAGGTTAG showed a switch fluorescence ratio of 0.981. With GTGGCTGTTA the switch fluorescence ratio was 1. GATTCAGGA showed a switch fluorescence ratio of 1.02. CCTCGGGCAT showed a switch fluorescence ratio of 4.81. Sequence AATACAACCT has a switch fluorescence ratio of 1.66. In the case of TGAAGTACCG, the switch fluorescence ratio is reported as 1.04. AGAGGCAGTT showed a switch fluorescence ratio of 1. In the case of GGAATAGAAG, the switch fluorescence ratio is reported as 0.985. AGTACGGTTG was tested, and the switch fluorescence ratio was 0.948. For CAATAGGATA, the switch fluorescence ratio was 1.05. With CGGTCACAAA the switch fluorescence ratio was 1. AAGTCAAGG was tested, and the switch fluorescence ratio was 0.996. CAAGCTTAGC gave a switch fluorescence ratio of 1.02. GAGCATTGCT was tested, and the switch fluorescence ratio was 1.06. TTCTTAGCTG was tested, and the switch fluorescence ratio was 1.03. TAAATGCTCT gave a switch fluorescence ratio of 1. Work on CGGTTCTCAA yielded a switch fluorescence ratio of 0.938. TGACCGAAGC showed a switch fluorescence ratio of 1.81. ACCACTGGTC gave a switch fluorescence ratio of 1.13. AGTTTCTCCC was tested, and the switch fluorescence ratio was 1.13. TATGTAGGAT showed a switch fluorescence ratio of 0.974. With CGCTTAAACC the switch fluorescence ratio was 1.38. For GCGACCCAGG, the switch fluorescence ratio was 2.11. In the case of AAATAGTA, the switch fluorescence ratio is reported as 1. TGCGGAGCG gave a switch fluorescence ratio of 0.961. GAATCTGGCT gave a switch fluorescence ratio of 1.02. Sequence TACCCAGTTC has a switch fluorescence ratio of 0.997. For CTTGCCGTGA, the switch fluorescence ratio was 0.988. In the case of AAGGGAATCA, the switch fluorescence ratio is reported as 1.04. AATGGTTGT gave a switch fluorescence ratio of 0.998. GCCGGATCTG was tested, and the switch fluorescence ratio was 1.38. For GAACCATTTG, the switch fluorescence ratio was 1.01. Work on TAATGTACCC yielded a switch fluorescence ratio of 1.14. For CCTCAGGTGT, the switch fluorescence ratio was 2.96. Sequence TGAACAGGGT has a switch fluorescence ratio of 0.976. Sequence GGTCATGAGT has a switch fluorescence ratio of 0.999. TGCCTGGCCC showed a switch fluorescence ratio of 1.02. With GAACAGCATG the switch fluorescence ratio was 0.95. TTAGATGCGC showed a switch fluorescence ratio of 0.971. GGGAACTAGG showed a switch fluorescence ratio of 1.08. AGCAGCCCGT gave a switch fluorescence ratio of 1.03. With TGGATCGGGA the switch fluorescence ratio was 1.02. GCGCGCCACC was tested, and the switch fluorescence ratio was 1. TACTTCCTGA gave a switch fluorescence ratio of 1.05. Sequence TAGCTCACTT has a switch fluorescence ratio of 0.999. GAGTGTGTAT was tested, and the switch fluorescence ratio was 1.05. Sequence CGCTTGATCC has a switch fluorescence ratio of 1.09. For GATCCTCCTC, the switch fluorescence ratio was 1.48. Work on TATAATCAGT yielded a switch fluorescence ratio of 1.03. TTACCAGACC gave a switch fluorescence ratio of 1.12. Sequence GACGTCTT has a switch fluorescence ratio of 0.961. AAGCGGAGAC was tested, and the switch fluorescence ratio was 1.23. With AAGCTGGACT the switch fluorescence ratio was 1.01. TCTAAGATCA showed a switch fluorescence ratio of 1.05. Sequence ATTGTCGTAA has a switch fluorescence ratio of 1.02. Work on GATTTTAGT yielded a switch fluorescence ratio of 0.983. GGCCACTGTT gave a switch fluorescence ratio of 1.01. CCAAATCGGT was tested, and the switch fluorescence ratio was 0.994. Sequence GACATGGGGG has a switch fluorescence ratio of 0.987. With TCGCGTGCTT the switch fluorescence ratio was 0.947. Work on CTCGGGCGGG yielded a switch fluorescence ratio of 1.01. Sequence AGTAAACTTG has a switch fluorescence ratio of 1.1. AACGAGGCTT was tested, and the switch fluorescence ratio was 1.03. With AAGTTATACC the switch fluorescence ratio was 1.03. For TTTAATCTCG, the switch fluorescence ratio was 1.02. Work on TCGCCGAGGG yielded a switch fluorescence ratio of 0.986. GGTTAAACCA was tested, and the switch fluorescence ratio was 0.995. For ATCAGGGCGC, the switch fluorescence ratio was 1.08. Sequence GCAGTTGACA has a switch fluorescence ratio of 1.03. TTCAGGGTGC showed a switch fluorescence ratio of 1.08. Sequence ATCTGGTGAT has a switch fluorescence ratio of 1. Work on GCCGAAACTT yielded a switch fluorescence ratio of 1.03. In the case of AACTGGGTTT, the switch fluorescence ratio is reported as 1.02. In the case of GGGAGAGGAT, the switch fluorescence ratio is reported as 1. GCGCGCAGCC gave a switch fluorescence ratio of 1.02. In the case of TTTACACAGC, the switch fluorescence ratio is reported as 1.07. In the case of GCTATAAGAG, the switch fluorescence ratio is reported as 1.02. TGATAGTCTT was tested, and the switch fluorescence ratio was 0.953. For GAAATACGCG, the switch fluorescence ratio was 1.02. Sequence CGTTTATATC has a switch fluorescence ratio of 1.02. For AGAGCAGATT, the switch fluorescence ratio was 1.04. Work on TCAAGGAAAG yielded a switch fluorescence ratio of 0.992. Sequence ACGTTCGAGC has a switch fluorescence ratio of 1.1. In the case of CGATCCGCTT, the switch fluorescence ratio is reported as 2.4. CGTATGGTGG showed a switch fluorescence ratio of 0.902. CATAAAGTGG gave a switch fluorescence ratio of 0.991. For GCCGGAAGAC, the switch fluorescence ratio was 4.29. CAGCCTTAAA showed a switch fluorescence ratio of 0.987. Work on ATCCGTTGGG yielded a switch fluorescence ratio of 0.999. Sequence CACCTCAATA has a switch fluorescence ratio of 2.55. Work on CAGAACAAAC yielded a switch fluorescence ratio of 1.11. For ACTAGAGGGT, the switch fluorescence ratio was 1.05. Sequence CGTAACCATC has a switch fluorescence ratio of 1.02. TGAGCGAACT was tested, and the switch fluorescence ratio was 1.04. AATGAATAAG was tested, and the switch fluorescence ratio was 1.01. TTTATATCTA gave a switch fluorescence ratio of 0.994. For ATTGCGCTCA, the switch fluorescence ratio was 0.97. GGCTGCTTGT gave a switch fluorescence ratio of 1.03. For AGTCTCATCA, the switch fluorescence ratio was 0.985. For ATAACGCGTC, the switch fluorescence ratio was 1.04. AAAGCTACTC gave a switch fluorescence ratio of 1.6. For AGCCTGATAC, the switch fluorescence ratio was 2.51. Sequence ATGCAATCGC has a switch fluorescence ratio of 1.47. For GTTCAATCTG, the switch fluorescence ratio was 0.967. GATCGTCCCG showed a switch fluorescence ratio of 0.994. GCTTCAGTCG showed a switch fluorescence ratio of 1.03. CAGCGTTATG showed a switch fluorescence ratio of 0.999. In the case of TAACCCGTTT, the switch fluorescence ratio is reported as 1. TTCTATACAG gave a switch fluorescence ratio of 0.999. ATAACAGCGA showed a switch fluorescence ratio of 1.03. For ATCCTTCCAG, the switch fluorescence ratio was 1.35. Work on CGGCTCTTTA yielded a switch fluorescence ratio of 0.985. For TAATGACTGC, the switch fluorescence ratio was 1.02. Work on ATTGGTTCTT yielded a switch fluorescence ratio of 0.965. TCAGGTTAGA showed a switch fluorescence ratio of 1.03. For GGGGTCACCC, the switch fluorescence ratio was 1.03. Sequence CACAAGGTGC has a switch fluorescence ratio of 1.58. Work on AAATGTATTC yielded a switch fluorescence ratio of 1.03. Sequence AAAGATAAAC has a switch fluorescence ratio of 0.979. AGACAGTAAG showed a switch fluorescence ratio of 0.993. Sequence CCATCACCT has a switch fluorescence ratio of 1.19. In the case of TCGGTCATGT, the switch fluorescence ratio is reported as 0.99. CCGGTATTTA was tested, and the switch fluorescence ratio was 1.01. TGTTAGAATG gave a switch fluorescence ratio of 1.02. Sequence TAGGCTTGTG has a switch fluorescence ratio of 0.997. For GCTGGCTAGT, the switch fluorescence ratio was 1. With CCCAACATAA the switch fluorescence ratio was 1.05. Work on GCTCTGCGAC yielded a switch fluorescence ratio of 3.84. CTTGCAAGG was tested, and the switch fluorescence ratio was 1.01. AGTAACGAGT was tested, and the switch fluorescence ratio was 0.922. With TGGCACCCTG the switch fluorescence ratio was 1. With GATCACTAAT the switch fluorescence ratio was 1.02. Sequence AGTAGAGAGA has a switch fluorescence ratio of 0.973. In the case of CATGATGGTG, the switch fluorescence ratio is reported as 0.99. With CATTTGGTTA the switch fluorescence ratio was 0.949. AGCCGGAGAA showed a switch fluorescence ratio of 0.98. For AATGAGGCGA, the switch fluorescence ratio was 1.01. Sequence CTTAATCTTT has a switch fluorescence ratio of 0.998. In the case of AGCGCCGGCG, the switch fluorescence ratio is reported as 0.996. CTTGCCTCCC gave a switch fluorescence ratio of 1.69. With AAGTTTGAGA the switch fluorescence ratio was 1.02. In the case of ACTAAAGGTT, the switch fluorescence ratio is reported as 1.08. Sequence TTCTGCATAA has a switch fluorescence ratio of 1.23. AAAGCGGTT was tested, and the switch fluorescence ratio was 1.01. Work on GAGTCACTGA yielded a switch fluorescence ratio of 1.06. GGTTGGTAGT gave a switch fluorescence ratio of 0.957. Work on GGTCCCCATT yielded a switch fluorescence ratio of 0.98. TGACTGCAGA showed a switch fluorescence ratio of 1.04. Sequence GGGATATTCT has a switch fluorescence ratio of 1.21. Work on CGACGCGCTG yielded a switch fluorescence ratio of 1.07. For TGCAGTCGGG, the switch fluorescence ratio was 0.981. TATTAAAAGC was tested, and the switch fluorescence ratio was 1. Sequence GGGTGTACGT has a switch fluorescence ratio of 1.02. Work on GGCTAAGCGG yielded a switch fluorescence ratio of 1.03. In the case of GGCCACGCCC, the switch fluorescence ratio is reported as 1.03. Work on ATGCAGTTC yielded a switch fluorescence ratio of 1.04.
